This is one part of the list. Where only a bound is given, the exact number is not on record here.

The chains are these.
B1: PhoQ; a variant is named by its letters at X, in order, P23837 (parent)
chain: MKKLLRLFFPLSLRVRFLLATAAVVLVLSLAYGMVALIGYSVSFDKTTFRLLRGESNLFYTLAKWENNKLHVELPENIDKQSPTMTLIYDENGQLLWAQRDVPWLMKMIQPDWLKSNGFHEIEADVNDTSLLLSGDHSIQQQLQEVREDDDDAEMTHSVAVNVYPATSRMPKLTIVVVDTIPVELKSSYMVWSWFIYVLSANLLLVIPLLWVAAWWSLRPIEALAKEVRELEEHNRELLNPATTRELTSLVRNLNRLLKSERERYDKYRTTLTDLTHSLKTPLXXLQXXLRSLRSEKMSVSDAEPVMLEQISRISQQIGYYLHRASMRGGTLLSRELHPVAPLLDNLTSALNKVYQRKGVNISLDISPEISFVGEQNDFVEVMGNVLDNACKYCLEFVEISARQTDEHLYIVVEDDGPGIPLSKREVIFDRGQRVDTLRPGQGVGLAVAREITEQYEGKIVAGESMLGGARMEVIFGRQHSAPKDE

The assay covers variants of B1. Nature of the assay: enrichment ratio after two sorts for PhoP signalling (ratio (wild type AVST 3.29)); higher = more functional. The settings on record: with PhoP (E. coli).
Regarding ARVW, the enrichment ratio is at most 0.25.

Take WEIF: the enrichment ratio was at most 0.25.

VSPA: the enrichment ratio is at most 0.25.

With DRFI, the enrichment ratio is at most 0.25.

On to HLFA, for which the enrichment ratio is at most 0.25.

For VSYG, the enrichment ratio is at most 0.25.

In the case of WCRH, the enrichment ratio was at most 0.25.

Consider ILRI, for which the enrichment ratio was at most 0.25.

As for VLKA, the enrichment ratio was at most 0.25.

Consider LQHG, for which the enrichment ratio is at most 0.25.

On to WYAY, for which the enrichment ratio was at most 0.25.

With QHHH, the enrichment ratio is at most 0.25.

With GDVL, the enrichment ratio amounted to 0.987.

Take VQIK: the enrichment ratio is at most 0.25.

Turning to HMMS, the enrichment ratio was at most 0.25.

For the variant NALP, the enrichment ratio was at most 0.25.

Take DGGS: the enrichment ratio is at most 0.25.

With HKEK, the enrichment ratio was at most 0.25.

On to ICHS, for which the enrichment ratio is at most 0.25.

On to RIEF, for which the enrichment ratio is at most 0.25.

As to ERTS, the enrichment ratio was at most 0.25.

Turning to FTDL, the enrichment ratio is at most 0.25.

As for PVGG, the enrichment ratio was at most 0.25.

Take GIYW: the enrichment ratio is at most 0.25.

Turning to WGVS, the enrichment ratio was at most 0.25.

For DDWT, the enrichment ratio was at most 0.25.

As to ITCK, the enrichment ratio is at most 0.25.

For the variant DKVM, the enrichment ratio was at most 0.25.

For the variant PSAY, the enrichment ratio is at most 0.25.

Regarding KKAS, the enrichment ratio is at most 0.25.

As to YWSV, the enrichment ratio was at most 0.25.

With IQDH, the enrichment ratio was at most 0.25.

For TVTL, the enrichment ratio stood at 15.2.

FAMV: the enrichment ratio was 7.9.

Turning to KIQS, the enrichment ratio is at most 0.25.

Consider IGLM, for which the enrichment ratio turned out to be 14.

DYVK: the enrichment ratio was at most 0.25.

For WIRP, the enrichment ratio was at most 0.25.

As to DNND, the enrichment ratio is at most 0.25.

With DFRP, the enrichment ratio is at most 0.25.

For the variant RERR, the enrichment ratio was at most 0.25.

Take RAAP: the enrichment ratio is at most 0.25.

Consider GNWC, for which the enrichment ratio was at most 0.25.

In the case of SHYQ, the enrichment ratio was at most 0.25.

For the variant VQPY, the enrichment ratio is at most 0.25.

Regarding KPHP, the enrichment ratio was at most 0.25.

Turning to PNTT, the enrichment ratio is at most 0.25.

RHWM: the enrichment ratio is at most 0.25.

As for ENLE, the enrichment ratio is at most 0.25.

Consider TIRS, for which the enrichment ratio came to 0.31.

Regarding ACLL, the enrichment ratio was 13.3.

Consider RFNN, for which the enrichment ratio is at most 0.25.

As for FANV, the enrichment ratio is at most 0.25.

As for DKPC, the enrichment ratio is at most 0.25.

For the variant RTDN, the enrichment ratio was 3.33.

For the variant RPEL, the enrichment ratio is at most 0.25.

With DKDK, the enrichment ratio was at most 0.25.

As for KCGL, the enrichment ratio was at most 0.25.

For DCNP, the enrichment ratio was at most 0.25.

In the case of YQWM, the enrichment ratio is at most 0.25.

With ETIQ, the enrichment ratio is at most 0.25.

As for IMGT, the enrichment ratio was at most 0.25.

Consider PIIC, for which the enrichment ratio was at most 0.25.

On to WWDI, for which the enrichment ratio was at most 0.25.

On to QLTI, for which the enrichment ratio is 0.476.

As for LHCP, the enrichment ratio was at most 0.25.

As to NTSY, the enrichment ratio was at most 0.25.

Turning to NLAH, the enrichment ratio is at most 0.25.

With DSIT, the enrichment ratio was at most 0.25.

Regarding TYLW, the enrichment ratio was at most 0.25.

On to YMFE, for which the enrichment ratio was at most 0.25.

For SVGH, the enrichment ratio worked out at 6.05.

Take SATY: the enrichment ratio was 12.7.

On to HATY, for which the enrichment ratio is at most 0.25.

Take IAFI: the enrichment ratio is at most 0.25.

As for HHGV, the enrichment ratio was at most 0.25.

With DCWH, the enrichment ratio is at most 0.25.

As for VCRA, the enrichment ratio was at most 0.25.

Take SEIC: the enrichment ratio worked out at 32.9.

In the case of WYEF, the enrichment ratio is at most 0.25.

For PTRM, the enrichment ratio is at most 0.25.

FQIW: the enrichment ratio was at most 0.25.

Turning to TVTF, the enrichment ratio was 0.76.

For FEFG, the enrichment ratio is at most 0.25.

Regarding FMSD, the enrichment ratio was at most 0.25.

With RLYS, the enrichment ratio was at most 0.25.

As for NMKQ, the enrichment ratio was at most 0.25.

With PMEH, the enrichment ratio was at most 0.25.

For MQTD, the enrichment ratio is at most 0.25.

For VLNR, the enrichment ratio was at most 0.25.

As to AWLK, the enrichment ratio was at most 0.25.

For KTFN, the enrichment ratio is at most 0.25.

Regarding WQHA, the enrichment ratio is at most 0.25.

Take KYLD: the enrichment ratio is at most 0.25.

Consider EEDT, for which the enrichment ratio is at most 0.25.

As for NMQK, the enrichment ratio is at most 0.25.

Turning to VFYF, the enrichment ratio is at most 0.25.

Take EFGQ: the enrichment ratio is at most 0.25.

For RMMC, the enrichment ratio was at most 0.25.

Turning to NGLI, the enrichment ratio turned out to be 2.73.

QELI: the enrichment ratio was at most 0.25.

As to HVSS, the enrichment ratio is at most 0.25.

On to WYIR, for which the enrichment ratio is at most 0.25.

Consider NRGM, for which the enrichment ratio is at most 0.25.

For VIYW, the enrichment ratio is at most 0.25.

Take WYAM: the enrichment ratio was at most 0.25.

With NTPF, the enrichment ratio was at most 0.25.

HFKT: the enrichment ratio is at most 0.25.

For LMID, the enrichment ratio is at most 0.25.

Take HQWS: the enrichment ratio is at most 0.25.

Turning to AHQS, the enrichment ratio is at most 0.25.

For RWWD, the enrichment ratio was at most 0.25.

Consider LAKL, for which the enrichment ratio is at most 0.25.

As for LMQA, the enrichment ratio is at most 0.25.

With EAMY, the enrichment ratio was at most 0.25.

On to WEYV, for which the enrichment ratio is at most 0.25.

KIYY: the enrichment ratio was at most 0.25.

IINW: the enrichment ratio was at most 0.25.

Turning to DAGP, the enrichment ratio is at most 0.25.

GDFM: the enrichment ratio was at most 0.25.

For the variant VAKY, the enrichment ratio was at most 0.25.

Take IYFG: the enrichment ratio was at most 0.25.

Regarding NFVL, the enrichment ratio was at most 0.25.

With VVTP, the enrichment ratio was at most 0.25.

On to LVLK, for which the enrichment ratio is at most 0.25.

For TKPV, the enrichment ratio was at most 0.25.

In the case of DTWD, the enrichment ratio was at most 0.25.

On to HFGG, for which the enrichment ratio was at most 0.25.

As to YMFH, the enrichment ratio is at most 0.25.

On to MQTI, for which the enrichment ratio is at most 0.25.

On to DPDS, for which the enrichment ratio was at most 0.25.

As for REAN, the enrichment ratio was at most 0.25.

In the case of FMNE, the enrichment ratio was at most 0.25.

In the case of DSNQ, the enrichment ratio was at most 0.25.

For VIAH, the enrichment ratio turned out to be 6.06.

Turning to WTEW, the enrichment ratio was at most 0.25.

Consider QMCA, for which the enrichment ratio is at most 0.25.

For the variant RWSR, the enrichment ratio was at most 0.25.

As for FGES, the enrichment ratio was at most 0.25.

For the variant HLKF, the enrichment ratio is at most 0.25.

As to HKPN, the enrichment ratio is at most 0.25.

As for LQTR, the enrichment ratio turned out to be 3.24.

Take NAKC: the enrichment ratio is at most 0.25.

As for EQIW, the enrichment ratio was at most 0.25.

For the variant IVHT, the enrichment ratio was at most 0.25.

On to NDVS, for which the enrichment ratio was at most 0.25.

RLTP: the enrichment ratio is at most 0.25.

Regarding CFYS, the enrichment ratio was at most 0.25.

With VHGY, the enrichment ratio is at most 0.25.

As for HHAT, the enrichment ratio is at most 0.25.

Regarding AQLP, the enrichment ratio was at most 0.25.

In the case of ETYR, the enrichment ratio is at most 0.25.

With VRAL, the enrichment ratio was at most 0.25.

Source of the values: a collection of fitness landscapes (doi:10.1126/science.1257360).
